Test results: PubChem BioAssay AID488969 (Vanderbilt High Throughput Screening Facility, 2010)
Over roughly 110,000 compounds, “z-score” has its median near -0.1; the highest 2% begin near 2. This is one part of the list. Active and inactive are the calls of the source.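 The calls were made as follows: active = z-score in the third read window above 3 or below -3; inactive = the rest.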

What follows are compounds tested against Metabotropic glutamate receptor 8 (Rattus norvegicus) (UniProt P70579) (assay: rat mGluR8 modulators via GIRK flux, primary screen, cell-based, thallium flux, HTS (AID 488969)). Details: HEK293 rat mGluR8, GIRK (G protein-gated inwardly rectifying potassium channel) thallium flux, FluoZin2; at 10 µM; stronger effect = higher value; submaximal glutamate (EC20) added with thallium.
UniProt P70579, sequence (P70579 whole entry, looked up): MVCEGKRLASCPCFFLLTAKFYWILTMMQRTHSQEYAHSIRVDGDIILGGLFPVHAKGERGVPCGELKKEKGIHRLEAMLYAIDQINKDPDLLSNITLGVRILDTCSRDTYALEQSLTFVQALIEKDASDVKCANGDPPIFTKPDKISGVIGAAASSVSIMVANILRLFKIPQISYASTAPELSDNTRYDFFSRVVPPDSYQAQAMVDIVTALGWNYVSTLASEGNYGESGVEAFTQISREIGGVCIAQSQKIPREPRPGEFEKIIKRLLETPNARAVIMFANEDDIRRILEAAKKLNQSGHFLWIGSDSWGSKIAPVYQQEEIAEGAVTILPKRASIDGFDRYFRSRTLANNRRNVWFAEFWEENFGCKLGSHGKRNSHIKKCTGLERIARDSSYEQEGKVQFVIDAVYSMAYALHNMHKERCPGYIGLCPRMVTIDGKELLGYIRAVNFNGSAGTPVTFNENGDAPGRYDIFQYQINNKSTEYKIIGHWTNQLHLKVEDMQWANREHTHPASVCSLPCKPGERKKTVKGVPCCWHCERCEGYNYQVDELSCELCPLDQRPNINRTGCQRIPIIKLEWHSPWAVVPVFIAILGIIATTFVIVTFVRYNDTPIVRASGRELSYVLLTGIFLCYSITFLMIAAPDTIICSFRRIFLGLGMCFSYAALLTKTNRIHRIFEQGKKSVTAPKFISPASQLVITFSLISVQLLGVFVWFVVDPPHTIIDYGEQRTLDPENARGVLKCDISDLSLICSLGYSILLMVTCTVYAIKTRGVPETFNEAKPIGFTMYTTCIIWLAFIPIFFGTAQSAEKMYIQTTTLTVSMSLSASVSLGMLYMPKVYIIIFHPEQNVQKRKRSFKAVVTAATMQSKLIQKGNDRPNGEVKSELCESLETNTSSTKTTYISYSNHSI

Compound | z-score
Cn1c(SCC(=O)NC2CCCC2)nnc1-c1ccc(S(=O)(=O)N2CCOCC2)cc1 | -0.122
O=C(c1ccccc1)c1cn[nH]c1-c1ccccc1O | -0.0732
Cc1ccc2[nH]c3c(c2c1)CC/C(=C/c1ccccc1)C3=O | 0.221
Cc1cccn2cc(CCNS(=O)(=O)c3ccc4c(c3)OCCO4)nc12 | -0.235
Cc1ccc(NC(=O)c2ccc3c(c2)OCCO3)cc1S(=O)(=O)Nc1cccc(Cl)c1 | 0.619
COC(=O)N/N=C/c1ccc(OCCSc2ccc(Cl)cc2)c(OC)c1 | 0.427
CC(=O)Nc1ccc(S(=O)(=O)NC2(C(F)(F)F)C(=O)Nc3c2c(=O)n(C)c(=O)n3C)cc1 (centres undefined) | -0.194
CCOC(=O)c1cnc(SCC(=O)Nc2cccc(OC)c2)nc1N | 0.649
O=S(c1ccc2ccccc2c1)c1cnns1 (centres undefined) | 0.0599
Cc1onc(-c2ccccc2Cl)c1C(=O)NC(=S)Nc1ccccc1C(N)=O | -0.0945
Cc1ccc(S(=O)(=O)N2CCN(Cc3nc4sc(C)c(C)c4c(=O)[nH]3)CC2)cc1 | -0.106
Cc1ccc(N=C2C(=S)N(c3ccc(C)cc3)C(=N)N2/N=C/c2ccc(Cl)cc2)cc1 | 0.425
O=C(Nc1cccc(NC(=O)c2ccc(-c3ccc(Br)cc3)o2)c1)c1ccccc1 | -0.145
C=CCNC(=O)/C(=C\c1cccc([N+](=O)[O-])c1)NC(=O)c1ccccc1 | -0.15
Oc1cc(NCc2cccnc2)ccc1-c1nc2ccccc2o1 | 0.423
C=CCSc1nnc(NC(=O)c2cccc(S(=O)(=O)N3CCOCC3)c2)s1 | -0.231
O=C(c1cccc2ccccc12)N1CCN(c2ccc([N+](=O)[O-])c(N3CCOCC3)c2)CC1 | -0.806
CC(=O)c1c(COC(=O)c2ccncc2)nc2ccccc2[n+]1[O-] | -0.077
CCN(CC)CCNS(=O)(=O)c1ccc2[nH]cc(C(=O)O)c(=O)c2c1 | -0.0272
CC(C)/C(=N\NC(=O)Nc1ccccc1)c1ccccc1 | -0.107
COc1ccc(Nc2nc3ccccc3nc2-n2nc(C)cc2C)cc1 | -0.0719
CCOC(=O)c1cc(CN2CCOCC2)oc1-c1ccccc1 | -0.972
CN(C)CCNC(=O)c1cc2c(s1)-c1ccccc1OC2 | active: 3.28

Compound | z-score
O=C(Cc1ccccc1)NCC(=O)OCC(=O)c1cccc([N+](=O)[O-])c1 | -0.184
O=C(Nc1ccc(O)c(-c2nc3ccccc3o2)c1)C1(c2ccc([N+](=O)[O-])cc2)CCCC1 | -0.206
CCN(CC)c1ccc(C=Nc2cc(C)ccc2C)c(O)c1 | -0.151
CCOC(=O)C1CCCN(S(=O)(=O)c2ccccc2)C1 (centres undefined) | -0.0639
CC(=O)NCCc1cc2ccc(C)cc2[nH]c1=O | -0.381
CCN(CC)c1ccc(C2C(C(=O)OC(C)C)C(=O)CC(C)(O)C2C(=O)OC(C)C)cc1 (centres undefined) | -0.488
Cc1ccnc2c(N3C(=O)C4C5C=CC(C5)C4C3=O)cccc12 (centres undefined) | 0.571
Cc1ccc(S(=O)(=O)N2CCN(C(=O)CN3C(=O)NC4(CCOc5ccccc54)C3=O)CC2)cc1 (centres undefined) | 0.106
CCOC(=O)c1cccc(P(C)(C)=O)c1 | -0.00457
O=C(Nc1cccnc1)c1ccc(S(=O)(=O)N2CCCCCC2)cc1 | 0.612
CC(C)C(O)(C#CCN1CCCCC1)c1ccccc1 (centres undefined) | 1.95
COc1cccc(C(=O)Nc2ncc3c(n2)CC(C)(C)CC3=O)c1 | 0.57
Cc1c(C(=O)O)sc2ncnc(N3CCCCC3C)c12 (centres undefined) | -0.514
CCOC(=O)c1c(C)nc(-c2ccccc2)nc1NC(=O)C(C)C | -0.21
CCN1CCN(CC(=O)N2c3ccccc3CC2C)CC1 (centres undefined) | 0.0687
S=C(NC1CCCCC1)N1CCN(c2ccccn2)CC1 | -0.808
Cc1cc(C)cc(NC(=O)CN2C(=O)NC(C)(c3ccccc3)C2=O)c1 (centres undefined) | -0.178
Cc1cc(C)cc(NC(=O)CN(Cc2ccccc2)S(C)(=O)=O)c1 | -0.327
COC(=O)Cc1cc(OC)c(OC)cc1Cc1cc(OC)c(OC)cc1CC(=O)OC | 0.0334
CCCCOC(=O)c1ccc(NC(=O)c2cc(Cl)ccc2OC)cc1 | -0.0115
O=C(NCc1ccco1)c1ccc(S(=O)(=O)N2CCOCC2)cc1 | 0.0332
CCOC(=O)c1cn[nH]c1N | -0.543
O=C(c1ccccc1)N1CCN(CC2CC=CCC2)CC1 (centres undefined) | -0.214

Compound | z-score
CCOC(=O)C/C(C)=N/NC(=O)C1CC1(c1ccccc1)c1ccccc1 (centres undefined) | -1.09
COc1ccccc1CN=C1NC(=O)C(CC(=O)Nc2ccc(OC)c(OC)c2)S1 (centres undefined) | -0.818
O=C(NCCc1ccccc1)C1CCN(S(=O)(=O)c2cccc3nonc23)CC1 | -0.491
COc1ccnc(N2CCN(c3ccccc3)CC2)c1C#N | 0.0026
O=C(NC1CC1)c1scc2c1OCCO2 | -0.134
CCc1nnc(NC(=O)CN2C(=O)/C(=C/c3cc(OC)c(OC)c(OC)c3)SC2=S)s1 | -0.315
COc1ccc(NC(=O)C2CCCN2C(=O)NCc2ccccc2)cc1OC (centres undefined) | 0.285
CC(C)c1ccc(S(=O)(=O)c2cc3cc(Br)ccc3oc2=O)cc1 | -0.49
COc1cc(NC(=O)C2=C(N3CCOCC3)/C(=C\c3ccc(Cl)cc3Cl)CC2)cc(OC)c1OC | 0.0434
COc1ccc(C(=O)Nc2cccc(C)c2)cc1S(=O)(=O)N1CCOCC1 | 0.129
CCc1c(C)nc2ccc(Br)cc2c1Cl | -0.0836
CC(=O)C(C)Oc1ccc2c3c(c(=O)oc2c1C)CCCC3 (centres undefined) | -1.13
CCCCC(=O)Nc1nc(C)c(-c2csc(Nc3ccccc3OC)n2)s1 | -0.17
COc1cc(NC(=O)CCNC(=O)Cn2cnc3ccccc3c2=O)cc(OC)c1OC | 1.08
Cc1ccc(CSc2nc3c(c(=O)[nH]2)CCC3)cc1 | -1.9
CCCOc1cc(C)c(S(=O)(=O)NC2CC(C)(C)NC(C)(C)C2)cc1C | 1.57
COc1cc2cc(CN(CCc3ccccc3C)C(=S)NCCCN(C)C)c(=O)[nH]c2cc1OC | 0.66
CC(NC(=O)c1cccs1)C(c1cccs1)N1CCN(c2ccccc2)CC1 (centres undefined) | -0.641
Cc1ccccc1OC(=O)Cn1c(C(F)(F)F)nc2ccccc21 | -0.186
Fc1ccc(N2CCN(c3ccc4c(C(F)(F)F)cc(C(F)(F)F)nc4n3)CC2)cc1 | -0.261
C=C(C)C1CC=C(CN2CCC(C(=O)OCC)CC2)CC1 (centres undefined) | 0.503
CCOC(=O)c1c(-c2cccs2)csc1NC(=O)CSc1ncn[nH]1 | -0.402
CCOC(=O)c1ccc(N=Cc2nc(-c3ccccc3)oc2OC(C)=O)cc1 | -0.456
